Test results published in the RNAGym collection of RNA variant scans (doi:10.7554/elife.90254).
The source gives no read counts; variants with many changes may rest on few reads.

B1: LINE1-mini (parent)
chain: GGCAGAGCUCAACACAGCGUGGCAAAGUGGCUGUGGCUAGACUGCC

Variants of: B1
Test: self-cleavage, relative activity (ratio to wild type); higher = more cleavage; in vitro, sequencing; the parent is a self-cleaving ribozyme

| Variant | self-cleavage |
| --- | --- |
| GGCAGAGCUCAACUCAGCUUGGCAAAGUGGCUGUCGCCAGACUGCC | 0.07 |
| GGCAGAGCUCAACUCAUCGUGGCAAAGUGGCUGUGGCCAGACUGCC | 0.05 |
| GGCAGAGCUCAACUAAGCGUGGAAAAAUGGCUGUGGCUAGACUGCC | 0.21 |
| GGCAGAGCUCAACUCAGCCUGGUACAGUGGCUGUCGCUAGACUGCC | 0.02 |
| GGCAGAGCUCAACUCAGCGUAGCAUAGAGGCAGUGGUUAGACUGCC | 0.02 |
| GGCAGAGCUCAACUCACCGUGGCAAAGUAGCUGUGGCCAGACUGCC | 0.02 |
| GGCAGAGCUCAACUCAGCGUGACAAAGUGCAUGUGGCUAGACUGCC | 0.07 |
| GGCAGAGCUCAACUAAGCGUGGCAAAGUGAUUGGGGGUAGCCUGCA | 0.01 |
| GGCAGAGCUCAACUCAGCGUGGCAAAGUGGUUGUGGCUAUACUGCC | 0.03 |
| GGCAGAGCUCAACUCAGCGUGGAAAAGUAGCUGUGACUAGACUGCC | 0.14 |
| GGCAGAGCUCAACUCAGCGUGGCACAGUGGCUGUGGCUAGACUGAC | 0.08 |
| GGCAGAGCUCAACUCAGCGUAGCAAAGUGGCUGUGGGGAGACUGCC | 0.02 |
| GGCAGAGCUCAACUCAGCAUGGCAUAGUGACUGUGGCUAGACUGCC | 0.85 |
| GGCAGAGCUCAACUCAGCGUGGCAAUGUGGCUGUCGCUAUACUGCC | 0.1 |
| GGCAGAGCUCAACUCACCGUGGCAAAGUGGCUGUGGCUAGACUGAC | 0 |
| GGCAGAGCUCAACUCAGCGUAGCAAAGUGGAUGUGGCUAGACUGCC | 0.02 |
| GGCAGAGCUCAACUCAGCGUGGCAAAGUGGCUGUGGCUUGACUGCG | 0.07 |
| GGCAGAGCUCAACUCAGCUUGGCAAAGUGGCUGUGGAUAGACUGCC | 0.36 |
| GGCAGAGCUCAACUCAGCGUGGCUAAGUGGCUGUGGCUAGAUUGCC | 0.06 |

| Variant | self-cleavage |
| --- | --- |
| GGCAGAGCUCAACUCAGUGUGGCUAAGUGGCUGUGGCUAGUCUGCC | 0.02 |
| GGCAGAGCUCAACUCAGGGUUGCCAAGUGGCUGGGCCUAGACGGCC | 0.21 |
| GGCAGAGCUCAACUCAGCGUGUCAAAGUGGCUGUGGCUAGACUGCA | 0.32 |
| GGCAGAGCUCAACUCAGCGUGCCAAAGUGGCUGUGGCUAGUCUGCC | 0.11 |
| GGCAGAGCUCAACUCAGCGUGCCAAAGUGGCUGUAGCUAGACUGCC | 0.14 |
| GGCAGAGCUCAACUCAGCGUGGCAAGGUGUAUGUGGCUAGACUGCC | 0.03 |
| GGCAGAGCUCAACUCAUCGCGGGAAAGUGGUUGUGGCUAGACUGCC | 0.02 |
| GGCAGAGCUCAACUCAGGGUGGCAAAGUGGCUGUGGCUAGACUGCU | 0.09 |
| GGCAGAGCUCAACUCAGGGUGGCAAAGUGGCUGUGGAAAGAAUUGC | 0.02 |
| GGCAGAGCUCAACUCAGCGUUGCAAAGUGAGUAUGGCUAGACUGCC | 0.04 |
| GGCAGAGCUCAACUCAGCGUUGCAAAGAGGUUGUGGCUAGACAGCU | 0.02 |
| GGCAGAGCUCAACUCAGCGUUGCAAAGUGGCUGUUGCUAGACUGCC | 0 |
| GGCAGAGCUCAACUCAGCGUAGCAAAGUGGCUGUGGCUAGACUGUC | 0.31 |
| GGCAGAGCUCAACUAAGCGUCGCAAAGUGGCUGUGGCUAGACUGCC | 0.13 |
| GGCAGAGCUCAACUCAGCGUGGCAAAGUGGAUGUGGCUGGACUGCC | 0.02 |
| GGCAGAGCUCAACUCAGCGUGGCAAAGUGGCUGUGGCUGGAGUGCC | 0.04 |
| GGCAGAGCUCAACUCAGCGUGGAAAAAUGGCUGUGGCUAGACUGCC | 2.92 |
| GGCAGAGCUCAACUCAGCGUGGCACAGGGGCUGUGGCUAGACUGCC | 0.46 |
| GGCAGAGCUCAACUCUGCGUGGCAAAAUGGCUGUGGCUAGACUGCC | 0.05 |

| Variant | self-cleavage |
| --- | --- |
| GGCAGAGCUCAACUCAUCGUGGCAAAGUGGCUGUGGCUAGACUGGC | 0.04 |
| GGCAGAGCUCAACUCAGCACGGCGACGUGGCUGUGGCUAGACUACC | 0.1 |
| GGCAGAGCUCAACUUAGCAUGGCAAAGGGGCUCUGGCUAGACUGCC | 0.01 |
| GGCAGAGCUCAACUCAGGGUGGCAAAGUGGCUGUGACUCGACUGGC | 0 |
| GGCAGAGCUCAACUCAGCGUGGCAUAGUGGCUGUGGCUAGAGUGUC | 0.01 |
| GGCAGAGCUCAACUUAGCGUGGCAAAGUGGCUGUGGCUAUACUGCC | 0.18 |
| GGCAGAGCUCAACUCAUCGUGGCAAAGUGGCUGUGGCUAGACUUCC | 0.02 |
| GGCAGAGCUCAACUCAGCGUGGCAAACUGGCUGUGGCUAGUCUGCC | 0.02 |
| GGCAGAGCUCAACUAAGCUUGGCAAACUGGCUGUGACUAGACUGCC | 0.01 |
| GGCAGAGCUCAACUGACCGCGGCAAAGUGGCUGUGGCUAGACCGCC | 0.03 |
| GGCAGAGCUCAACUCAGCGUGGCCAAAUGGCUGUGGCUAGACUCCC | 0.12 |
| GGCAGAGCUCAACUCAGCGUGGCUAAGUGGCUGUGGCUGGACUGCC | 0.09 |
| GGCAGAGCUCAACUCAGCGUAUCAAAGUGGCUGUGGCUAGUGUGCC | 0.04 |
| GGCAGAGCUCAACUCAGCGUGGCAAAUUGCCUGUGGCUAGACUGCC | 0.11 |
| GGCAGAGCUCAACUCAGCGUCGCAAAGUGGCUGCGGCUAGACUGCC | 0.09 |
| GGCAGAGCUCAACUCAGCGUGGCAAAGUGGAUGUGGCGAGUCUGCA | 0.05 |
| GGCAGAGCUCAACUAAGCGUGGCAAAGUGGCUGUGGCAAUACUGCC | 0.02 |
| GGCAGAGCUCAACUCAACGUAGCAAAGUGGCUGUGGCUAGACUGCC | 0.06 |
